Measurements taken from article PMC4832077.
No constants are given. Whether binding was seen depends on the method and setting. Binding seen in cells or lysates may run through a third protein. Some results given as binding are weak or reduced against the parent protein; the word gives no strength.

Protein sequences, listed by entry. Tags and fused reporters are not part of them. Lines headed by an entry give the natural chain unless they say otherwise; changes in a name come on top. Residues count along the entry.
UniProt P56199, residues 29-1179: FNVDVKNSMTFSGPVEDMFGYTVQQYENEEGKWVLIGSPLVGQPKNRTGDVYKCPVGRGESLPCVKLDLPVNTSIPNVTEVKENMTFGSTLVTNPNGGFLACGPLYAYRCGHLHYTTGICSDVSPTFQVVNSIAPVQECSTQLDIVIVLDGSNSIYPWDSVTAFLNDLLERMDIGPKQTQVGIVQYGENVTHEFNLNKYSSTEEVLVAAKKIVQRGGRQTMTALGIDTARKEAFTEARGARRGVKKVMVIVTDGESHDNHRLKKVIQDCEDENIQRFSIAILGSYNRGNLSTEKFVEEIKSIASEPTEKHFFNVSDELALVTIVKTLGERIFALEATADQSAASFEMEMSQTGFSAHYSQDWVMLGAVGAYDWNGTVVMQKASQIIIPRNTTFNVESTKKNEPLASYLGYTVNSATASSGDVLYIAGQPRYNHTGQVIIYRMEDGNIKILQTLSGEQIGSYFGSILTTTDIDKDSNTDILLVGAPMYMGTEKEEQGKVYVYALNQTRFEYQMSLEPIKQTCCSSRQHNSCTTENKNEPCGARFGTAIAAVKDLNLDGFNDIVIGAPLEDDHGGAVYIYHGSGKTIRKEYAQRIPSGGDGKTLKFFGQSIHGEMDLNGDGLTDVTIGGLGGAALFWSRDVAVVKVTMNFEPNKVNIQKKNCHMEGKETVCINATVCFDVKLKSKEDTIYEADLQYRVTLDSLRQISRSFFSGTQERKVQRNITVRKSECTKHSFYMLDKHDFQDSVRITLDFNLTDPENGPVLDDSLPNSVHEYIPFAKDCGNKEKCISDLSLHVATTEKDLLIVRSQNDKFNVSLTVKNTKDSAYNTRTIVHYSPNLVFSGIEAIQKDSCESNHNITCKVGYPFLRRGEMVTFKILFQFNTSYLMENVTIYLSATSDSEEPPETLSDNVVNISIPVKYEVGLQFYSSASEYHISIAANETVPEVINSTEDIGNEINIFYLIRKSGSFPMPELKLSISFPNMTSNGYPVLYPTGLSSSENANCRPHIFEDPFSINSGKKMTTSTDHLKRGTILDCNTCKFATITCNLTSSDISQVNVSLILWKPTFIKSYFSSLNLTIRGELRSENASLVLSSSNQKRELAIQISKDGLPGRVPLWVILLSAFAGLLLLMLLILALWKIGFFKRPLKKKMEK
UniProt P05106, residues 27-788: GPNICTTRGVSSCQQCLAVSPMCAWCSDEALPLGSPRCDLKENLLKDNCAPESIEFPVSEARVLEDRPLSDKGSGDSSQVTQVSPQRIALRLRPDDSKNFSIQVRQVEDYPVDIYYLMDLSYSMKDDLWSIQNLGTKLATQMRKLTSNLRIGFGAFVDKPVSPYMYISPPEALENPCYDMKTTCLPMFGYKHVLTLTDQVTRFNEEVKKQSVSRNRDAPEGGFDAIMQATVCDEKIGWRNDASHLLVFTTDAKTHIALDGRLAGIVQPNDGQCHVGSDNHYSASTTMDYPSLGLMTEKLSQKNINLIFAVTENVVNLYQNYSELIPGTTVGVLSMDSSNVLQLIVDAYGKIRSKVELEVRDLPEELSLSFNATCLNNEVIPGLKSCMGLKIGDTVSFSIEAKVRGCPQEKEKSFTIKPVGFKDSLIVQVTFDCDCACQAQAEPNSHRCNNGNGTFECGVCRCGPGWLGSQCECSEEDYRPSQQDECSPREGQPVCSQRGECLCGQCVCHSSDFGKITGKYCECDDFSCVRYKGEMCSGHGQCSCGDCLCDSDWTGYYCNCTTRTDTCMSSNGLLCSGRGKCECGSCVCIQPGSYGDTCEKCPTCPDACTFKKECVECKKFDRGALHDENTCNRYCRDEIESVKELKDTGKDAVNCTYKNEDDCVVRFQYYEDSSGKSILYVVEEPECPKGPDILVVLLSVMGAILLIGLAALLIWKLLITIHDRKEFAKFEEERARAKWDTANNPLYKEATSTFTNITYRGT
UniProt O00214: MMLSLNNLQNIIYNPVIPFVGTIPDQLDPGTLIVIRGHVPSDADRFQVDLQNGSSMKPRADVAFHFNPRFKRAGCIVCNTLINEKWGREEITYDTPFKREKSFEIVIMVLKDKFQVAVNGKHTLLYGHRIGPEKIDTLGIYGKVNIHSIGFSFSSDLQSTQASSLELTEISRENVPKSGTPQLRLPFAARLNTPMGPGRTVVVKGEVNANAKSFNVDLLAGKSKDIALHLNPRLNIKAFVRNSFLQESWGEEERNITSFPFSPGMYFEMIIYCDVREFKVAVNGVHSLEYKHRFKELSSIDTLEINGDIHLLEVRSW
UniProt P05556: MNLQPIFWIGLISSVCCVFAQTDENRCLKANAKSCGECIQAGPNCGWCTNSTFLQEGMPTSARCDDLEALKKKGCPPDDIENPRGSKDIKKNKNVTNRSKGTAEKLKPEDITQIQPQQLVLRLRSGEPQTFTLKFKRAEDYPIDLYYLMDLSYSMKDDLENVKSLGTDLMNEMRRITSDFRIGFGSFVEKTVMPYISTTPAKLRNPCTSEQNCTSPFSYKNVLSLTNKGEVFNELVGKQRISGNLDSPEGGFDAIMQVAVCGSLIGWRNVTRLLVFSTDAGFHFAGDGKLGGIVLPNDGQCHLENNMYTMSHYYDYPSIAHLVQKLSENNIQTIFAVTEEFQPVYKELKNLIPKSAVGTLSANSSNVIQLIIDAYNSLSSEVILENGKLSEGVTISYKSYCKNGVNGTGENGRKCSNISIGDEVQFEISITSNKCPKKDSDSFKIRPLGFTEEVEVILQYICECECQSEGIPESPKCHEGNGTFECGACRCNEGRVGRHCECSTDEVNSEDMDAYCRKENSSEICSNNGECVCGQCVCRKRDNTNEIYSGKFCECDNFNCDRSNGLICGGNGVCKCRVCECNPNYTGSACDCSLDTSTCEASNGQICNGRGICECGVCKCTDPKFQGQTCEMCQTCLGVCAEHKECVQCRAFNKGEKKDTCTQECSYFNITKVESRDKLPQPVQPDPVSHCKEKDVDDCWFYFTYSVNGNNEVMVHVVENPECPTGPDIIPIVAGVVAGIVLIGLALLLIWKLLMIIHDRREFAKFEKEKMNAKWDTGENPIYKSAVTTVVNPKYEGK

T1: podoplanin (PDPN) expressed in lymphatic endothelial cells (human (endogenous in primary LECs)) (UniProt Q86YL7)
T1 sequence (chain, carries α2,3-sialylated glycans (bound by MAA II)): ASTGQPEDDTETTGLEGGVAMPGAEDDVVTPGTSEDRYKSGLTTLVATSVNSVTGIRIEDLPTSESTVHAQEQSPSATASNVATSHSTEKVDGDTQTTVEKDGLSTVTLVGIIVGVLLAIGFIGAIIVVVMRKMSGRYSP


Biological target: T1, podoplanin (PDPN) expressed in lymphatic endothelial cells (human (endogenous in primary LECs))
Assay: co-IP; anti-PDPN (clone E-1) on AminoLink Plus resin; lysates of serum-starved primary LECs, untreated or treated with galectin-8 for 15 min at 37 °C; IP buffer 25 mM Tris, 150 mM NaCl, 1 mM EDTA, 1% NP-40, 5% glycerol, pH 7.4; 4 °C overnight; western blot

Molecule | binding
integrin α1 (from UniProt P56199 29-1179) (receptor) | binds
integrin β3 (from UniProt P05106 27-788) (receptor) | no binding
endogenous galectin-8 (from UniProt O00214 1-317) | binds
integrin β1 (from UniProt P05556 21-798) (receptor) | binds
integrin α9 (receptor, UniProt Q13797 30-1035) YNLDPQRPVHFQGPADSFFGYAVLEHFHDNTRWVLVGAPKADSKYSPSVKSPGAVFKCRVHTNPDRRCTELDMARGKNRGTSCGKTCREDRDDEWMGVSLARQPKADGRVLACAHRWKNIYYEADHILPHGFCYIIPSNLQAKGRTLIPCYEEYKKKYGEEHGSCQAGIAGFFTEELVVMGAPGSFYWAGTIKVLNLTDNTYLKLNDEVIMNRRYTYLGYAVTAGHFSHPSTIDVVGGAPQDKGIGKVYIFRADRRSGTLIKIFQASGKKMGSYFGSSLCAVDLNGDGLSDLLVGAPMFSEIRDEGQVTVYINRGNGALEEQLALTGDGAYNAHFGESIASLDDLDNDGFPDVAIGAPKEDDFAGAVYIYHGDAGGIVPQYSMKLSGQKINPVLRMFGQSISGGIDMDGNGYPDVTVGAFMSDSVVLLRARPVITVDVSIFLPGSINITAPQCHDGQQPVNCLNVTTCFSFHGKHVPGEIGLNYVLMADVAKKEKGQMPRVYFVLLGETMGQVTEKLQLTYMEETCRHYVAHVKRRVQDVISPIVFEAAYSLSEHVTGEEERELPPLTPVLRWKKGQKIAQKNQTVFERNCRSEDCAADLQLQGKLLLSSMDEKTLYLALGAVKNISLNISISNLGDDAYDANVSFNVSRELFFINMWQKEEMGISCELLESDFLKCSVGFPFMRSKSKYEFSVIFDTSHLSGEEEVLSFIVTAQSGNTERSESLHDNTLVLMVPLMHEVDTSITGIMSPTSFVYGESVDAANFIQLDDLECHFQPINITLQVYNTGPSTLPGSSVSISFPNRLSSGGAEMFHVQEMVVGQEKGNCSFQKNPTPCIIPQEQENIFHTIFAFFTKSGRKVLDCEKPGISCLTAHCNFSALAKEESRTIDIYMLLNTEILKKDSSSVIQFMSRAKVKVDPALRVVEIAHGNPEEVTVVFEALHNLEPRGYVVGWIIAISLLVGILIFLLLAVLLWKMGFFRRRYKEIIEAEKNRKENEDSWDWVQKNQ | no binding
